Consider five molecules from US7604949B2, “Methods and compositions that affect melanogenesis” (New York University, priority 1999, dated 2009).

Structures are written as SMILES. Structures can show the parent of a compound that is named as a salt. Where two headings read alike, the source gives them in different places.

The test system of assay [1] is melan-a melanocytes. The assay can be described thus: Melanin production (absorbance 490 nm per protein) in melan-a melanocytes. In kind it is cell-based, mouse. As to the method:
Immediately before using the medium, tetradecanoyl phorbol acetate (TPA) was added at 200 nM. Cells were seeded in T-25 flasks with 4×10^4 cells/ml×4.5 ml/flask (10-20% confluent) and were grown at 37° C. with 5% CO2. Twenty-four hours later, a compound to be tested (diluted in 0.5 ml media) was added to the media. Forty-eight hours after the addition of drug, both the media and drug were changed. Cells were harvested after an additional 48 or 72 hours (100% confluent). In harvesting the cells, the reagents and cells were kept at 4° C. Briefly, the media was removed from the cells, and one milliliter of media was reserved if needed for the tyrosinase assay. The cells were then rinsed with approximately 500 μl cold 1× phosphate buffered saline (PBS) until the PBS rinse was clear. Cold extraction buffer (50 mM Tris, (pH 7.5), 2 mM EDTA (pH 7.8), 150 mM NACE, and 1% Triton x-100 (Sigma, St. Louis, Mo.), (500 μl) was added, and the sample was allowed to incubate on ice for a few minutes or until cells began to peel off the bottom of the flask. After tapping the flask to encourage the cells to fall off, the 500 μl of the extraction buffer/cells were removed and placed in a microfuge tube. After spinning the sample for 5 minutes at 14,000×g at 4° C., the supernatant was removed and saved in a microfuge tube for the protein assay (and tyrosinase assay, if necessary). The cell pellets were either stored at 4° C. overnight or at −20° C. for longer periods before assaying for melanin. […] The sample was vortexed and allowed to stand for approximately 10 minutes or until precipitated protein was visible in the solvent. If necessary, pellets were gently crushed with a microfuge tube pestle. Care was taken not to break the pellet(s) into many small pieces which would have made removing the solvent (and leaving melanin behind) difficult. Using a glass pipette, the solvent/protein was removed, being careful not to remove melanin. The extraction steps were repeated, and the pellets allowed to dry. Next, 250 μl of 2 N NaOH in 20% dimethylsulfoxide (DMSO) was added to each microfuge tube. The samples were heated at 66-70° C. until the melanin was completely dissolved. For each sample tested, 200 μl of the NaOH/melanin solution was transferred to a 96-well plate. 2 N NaOH in 20% DMSO was used as a blank, and the samples were read at a wavelength of 490 nm. The data were reported as absorbance of melanin per protein calculated for the total sample.

Assay [2] relates to melan-a melanocytes. The following applies: melan-a cells, 48 hours, low tyrosine, vs untreated.

Regarding `CCN(CC)CCO[C@H]1CC[C@@]2(C)C(=CC[C@@H]3[C@@H]2CC[C@]2(C)C(=O)CC[C@@H]32)C1` [U18666A, HCl], the “decrease in pigmentation as compared to control” value in assay [1] (2.5 μM) is recorded as 60%. Moreover, the “reduction of the effect of IBMX alone on pigment production” value in assay [1] (2.5 μM U18666A combined with 10 μM IBMX) is 75%.

As to `CN1[C@@H]2CC[C@H]1C[C@@H](OC(c1ccccc1)c1ccccc1)C2` [benztropine], the “levels of tyrosinase activity secreted to the incubation medium” value (“levels of tyrosinase activity secreted” below) in assay [2] (10 micromolar compound) is reported as “did not alter”.

In assay [1] (20 μM), `CN(C)CCCN1c2ccccc2CCc2ccccc21` [imipramine, 10,11-dihydro-n,n-dimethyl-5H-dibenz[b,f]azepine-5-propanamine] showed a decrease in pigmentation of 33%. Further, the “levels of tyrosinase activity secreted” value in assay [2] (10 micromolar compound) is “significantly increased”.

For `O=C(O)/C=C\C(=O)O.O=[N+]([O-])c1ccc2nc(N3CCNCC3)ccc2c1` [nitroquipazine, 6-nitro-2-(1-piperazinyl)-quinoline maleate], in assay [2] (30 micromolar compound), the “levels of tyrosinase activity secreted” value was “significantly increased”.

For the molecule `CC(=O)[C@H]1CC[C@H]2[C@@H]3CCC4=CC(=O)CC[C@]4(C)[C@H]3CC[C@]12C` [progesterone], the decrease in pigmentation came to 45% in assay [1] (10 μM) and 52% in assay [1] (20 μM).
